Measured values taken from the supplement of paper PMC11383711.
This is one part of the list. Binding of human antibodies (heavy:light variable regions, tested as scFv in one mRNA-display pool) to influenza hemagglutinin, with or without the stem antibody CR9114 bound first. Score = (mean enrichment − median) / interquartile range of that screen; higher = more enriched, 0 = typical non-binder. Active = above the paper's cut-off per screen: stems 28; unblocked H1 Solomon Islands 5, H1 Michigan 3, H3 5, H5 19, H7 2.85, both B 5; blocked 9, 7, H5 10, H7 10, B Phuket 10, B Lee 11.5. Scores are scaled within each screen and are no affinities; replicates correlate at about 0.6 to 0.9, and antibodies rare in the pool are noisier.

B1: W85-2G05 (protein)
chain 1: LVQPQESGPGLVKPSETLSLTCSVSGDSMYDYYWSWIRQPPGKGLEWIGCIHYSGSTNYNPSLKSRVTISVDTSKNQFSLKLSSVTAADTALYYCATGRSSNSGWYPYFYYGLDVWGQGTTVTVSS
chain 2: QSALTQPPSASGTPGQRVTISCSGSSSNIGENYVYWYQLFPGTAPKLVIYRSDQRPSGVPDRFSGSKSGTSASLVISGLRSEDEADFYCATWDDSLSGSWVFGGGTKLTV
B2: R95-1F02 (protein)
chain 1: EVQLLESGGGLVQPGGSLRLSCAASGFTFSSCAMTWVRRAPGKGLEWVSAISAGGGSTWYADSVKGRFTISRDNSKNTLYLQMNGLRAEDTAVYYCAKDLLHWYFDLWGRGTLVTVSS
chain 2: EIVLTQSPATLSLSPGEGATLSCRASQSVSSYLAWYQQKPGQAPRLLIYDASNRATGIPARFSGSGSGTDFTLTISSLEPEDFAVYYCQQRRNWPLTFGGGTKVEIK
B3: D1-H1-17-H3-14 (protein)
chain 1: QVQLQESGPGLVKPSESLSLTCSVSGGSVSSNLHYWSWIRQLPGKGLEWIGYISYTGSTKYNPSLNGRVTLSIDASKNQFSLELSSVTAADTAVYYCARDFFEKLIADDLNAFDIWGQGTMVTVSG
chain 2: DIRVTQSPSSLSASVGDRVTITCRASQSISRSLNWYQQRPGKAPKFLIYAASNLQSGVPSRFSGGGSGTDFTLTISSLQPEDFATYYCQETYSRTFGQGTKADIK
B4: AG8-2B02 (protein)
chain 1: VQLVESGGGVVQPGRSLRLSCVASGFDSNEYGMHWVRQAPGKGLEWVGVIWFDGTTKYYADSVKGRFTVSRDNSKNTVYLEMNSLRVEDTAVYYCAREHLPYYYDVGIYYYYGMNVWGQGTTVTVSS
chain 2: DIVMTQSPDSLAVSLGERATIKCKSSQSVLYSSYNKYYLAWYQKKPGQPPKLLLYWASTRESGVPDRFSGSGSGTDFTLTISSLQAEDVAVYYCQQYYSIPLTFGGGTKVEIK
B5: AG11-2B01 (protein)
chain 1: VQLQESGPGLVRPSETLSLTCSLSGGSFSEATDYWGWVRQAPGKGLEWIGSMSPSGITYISPSLTSRVTMSVDTSKKQFSLRLSFVVAADAAMYYCIKDRDIVSRGGFDLWGQGTLVTVSS
chain 2: DIQMTQSPSSLSASVGDAVTITCRASESISIFLNWYQHKPGKAPKLLIYLTSTLQSGVPSRFSGSGSGTDFTLTISGLQPEDFATYYCQQSYSHLPYTFGQGTKVEIK
B6: AG13-3B01 (protein)
chain 1: VQLVESGGGLVKPGGSLRLSCAASGFTFSDYYMTWIRQAPGKGLEWVSYIDSWSTYTDYPDSVKGRFTVSRDNAKNSLYLQMNSLRADDTAVYFCARDRGDCSRTTCSFDSWGQGTLVTVSS
chain 2: EIVMTQSPATLSVSPGERATLSCRASQSVSSYLAWYQQKPGQAPRLLIYGASTRATGIPARFSGSGSGTEFTLTISSLQSEDFGIYYCQQYSDWPLTFGGGTKVEIK
B7: K77-2D08 (protein)
chain 1: EVQLVESGGGVVQPGGSLRLSCAASGFSFSSHDMHWVRQAPGKGLEWVAFIRYDGSNEYYADSAEGRFAVSRDNSKNTLSLQLNSLRSDDTAVYYCANAADEWGGGLQHDYWGPGTLVIVSS
chain 2: QSALTQPASVSGSPGQSITISCTGGSFDVGGYNYISWYQQHPGKAPRLIIYGVTKRPSGVSTRFSASKSGATASLTISGLQAEDEAEYHCSSYTASTTWVFGGGTKLTV
B8: K77-1C10 (protein)
chain 1: EVQLVESGGGPVKPGGSLRLSCVGSGFTFSYFSMNWVRQAPGKGLEWVSSISSASNFIEYAESVRGRFTVSRDNAKNAVYLQMDNLRADDTAVYYCAREGPGEIVVVTCYDHWGQGTLVSVSS
chain 2: EIVMTQSPATLSVSPGERATLSCRASQSVKNNLAWYQQKPGQSPRLLIHDASARAAGVPARFSGSGSGTEFTLTISSLQSEDFAVYYCQHYNNRPPITFGPGTRVDVK
B9: R95-2F07 (protein)
chain 1: EVQLVESGGGLVQPGRSLRLSCAASGFSFDDYAMHWVRQTPGKGLEWVSGISWNSGSIGYADSVKGRFTISRDNAKNSLYLQMNSLRAEDTALYYCTKDMNRGCDSINCYNYYYYYYGMDVWGQGTTVTVSS
chain 2: QSVLTQPPSVSGAPGQRVTISCTGSSSNIGAGYDVHWYQQLPGTAPKLLIYGNTNRPSGVPDRFSGSQSGTSASLAITGLQAEDEADYYCQSYDSSLSGSLFGGGTKLTV
B10: R95-1C11 (protein)
chain 1: LVQLKESGPGLLRPSETLFLTCSVSGGSIRDTSYFWGWVRQPPGKGLEWIGNVYYSGTTYYKPSLKSRVTISVDTSKNQFSLNLSSVTAADTAVYYCASLHTVAPSFWGQGTLVTVSS
chain 2: SYELTQPPSVSVSPGQTASITCSGNKLGDKFVCWFQQKPGQSPVVVIYQDTMRPSGIPERFSGSNSGNTATLTISGTQAMDEGDYYCQVWDSSTVVFGGGTKLTVL
B11: AG12-3D05 (protein)
chain 1: VQLVESGAEVKKPGESLRLSCQASGYNFTDSWISWVRQVPGKGLEWMGRIDPEDSYTNYSPSFQGRVTISADTSITTAYVQWRSLRPSDTAIYFCGRYSVGRKADYWGQGTLVTVSS
chain 2: DIVMTQSPLSQPVTLGQPASISCRSSQSLVYTDGNIYLNWFQQRPGQAPRRLIYKVFNRDSGVPDRFSGSGSGTDFTLKISRVEAEDVGVYYCMQGTHWPYTFGQGTKVEIK
B12: antibody 1F05 (protein)
chain 1: VQLVESGGGLVKPGGSLRLSCAGSGFIFRTYFMSWVRQAPGKGLEWVASINNNGLYIYYSESVEGRFTISRDNAENSVYLQMDSLRADDTALYYCSRGPWEDYDSNTYRTFDYWGQGTLVTVSS
chain 2: DIQMTQSPSTLSASLGARVTISCRASQNIAPWLAWYQQKPGEAPKLLIYKTSNLESGVPSRFSGSGSGTEFTLAISSLQPDDFATYYCQQYNSYPWTFGQGTKVEIK
B13: antibody 1F04 (protein)
chain 1: VQLLESGGGLVQPGGSLRLSCAASGLTFSNYAMSWVRQAPGKGLEWVSVIYSSGSGTWYADSVKGRFTISRDNSKNTLYLQMISLRAEDTAVYYCAKDRIAGSWVDAFDMWGQGTMVTVSS
chain 2: DIQMTQSPSSLSASVGDRVTVTCQASQDFSNSLNWYQQKPGKAPKLLIYGASNLETGVPSRFSGSGSGTHYTFTINSLQPEDIATYYCQQFKAFGQGTKVEIK

These binders were tested against Influenza A H1N1 A/Michigan/45/2015 hemagglutinin ectodomain (assay: mRNA display binding score; higher = more enriched on the antigen). Conditions: antigen blocked with: 2 µM CR9114 IgG.
Procedure: (§1)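 A pool of natively paired antibodies, displayed as scFv on mRNA, was selected once on antigen-coated beads and sequenced before and after; two replicates.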

Binder	mRNA display binding score
B1	inactive: 1.77
B2	inactive: 3.94
B3	inactive: 1.94
B4	inactive: 1.25
B5	inactive: 1.52
B6	inactive: 4.77
B7	inactive: 3.92
B8	inactive: 2.88
B9	inactive: 0.936
B10	inactive: -0.129
B11	inactive: -0.149
B12	inactive: 6.1
B13	inactive: 1.77

Same assay, conditions: antigen blocked with: nothing

Binder	mRNA display binding score
B1	inactive: 0.922
B2	inactive: 0.32
B3	inactive: 0.489
B4	inactive: 0.32
B5	inactive: 1.31
B6	inactive: 1.79
B7	inactive: 1.79
B9	inactive: -0.588
B10	inactive: -0.296
B11	inactive: 0.987
B12	inactive: 0.79
B13	inactive: -0.0849

Each binder was assayed against Influenza A H1N1 A/Solomon Islands/3/2006 hemagglutinin ectodomain in the same assay as above. Conditions: antigen blocked with: 2 µM CR9114 IgG.
Procedure: as §1

Binder	mRNA display binding score
B1	inactive: 1.08
B2	inactive: 2.99
B3	inactive: 1.11
B4	inactive: 0.609
B5	inactive: 0.889
B6	inactive: 3.65
B7	inactive: 2.71
B8	inactive: 1.96
B9	inactive: -0.0921
B10	inactive: 0.304
B11	inactive: 0.177
B12	inactive: 8.79
B13	active: 133

Same assay, conditions: antigen blocked with: nothing

Binder	mRNA display binding score
B1	inactive: 4.99
B2	inactive: 2.1
B3	inactive: 4.99
B4	inactive: 3.27
B5	inactive: 0.135
B6	active: 7.33
B7	active: 7.33
B9	inactive: -0.164
B10	inactive: -0.163
B11	inactive: 0.841
B12	inactive: 1.83
B13	active: 111

These binders were tested against Influenza A H3N2 A/Singapore/INFIMH-16-0019/2016 hemagglutinin ectodomain in the same assay as above. Conditions: antigen blocked with: nothing.
Procedure: as §1

Binder	mRNA display binding score
B1	inactive: 1.34
B2	inactive: 0.371
B3	active: 22.1
B4	inactive: 0.756
B5	inactive: 0.931
B6	inactive: 2.11
B7	inactive: 2.11
B9	inactive: -0.154
B10	inactive: 0.0257
B11	inactive: 0.938
B12	inactive: -0.119
B13	inactive: -0.27

What follows are binders tested against Influenza A H5N1 A/Qinghai/1A/2005 hemagglutinin ectodomain in the same assay as above. Conditions: antigen blocked with: 2 µM CR9114 IgG.
Procedure: as §1

Binder	mRNA display binding score
B1	inactive: -0.0996
B2	inactive: 3.16
B3	inactive: 0.0128
B4	inactive: -0.0037
B5	inactive: 7.55
B6	inactive: 1.56
B7	inactive: 2.51
B8	inactive: 0.53
B9	inactive: -0.472
B10	inactive: -0.805
B11	inactive: 0.385
B12	inactive: 6.35
B13	inactive: 0.585

Same assay, conditions: antigen blocked with: nothing

Binder	mRNA display binding score
B1	inactive: 2.08
B2	inactive: 0.662
B3	inactive: 1.45
B4	inactive: 1.3
B5	inactive: 15.8
B6	inactive: 8.42
B7	inactive: 3.35
B9	inactive: 0.299
B10	inactive: 1.65
B11	inactive: 0.213
B12	inactive: 4.28
B13	inactive: 0.297

These binders were tested against Influenza A H7N9 A/Shanghai/2/2013 hemagglutinin ectodomain in the same assay as above. Conditions: antigen blocked with: 2 µM CR9114 IgG.
Procedure: as §1

Binder	mRNA display binding score
B1	inactive: -0.313
B2	inactive: 2.75
B3	inactive: -0.278
B4	inactive: -0.763
B5	inactive: 2.03
B6	inactive: 5.88
B7	inactive: 1.24
B8	inactive: 0.523
B9	inactive: -0.535
B10	inactive: 0.0064
B11	inactive: -0.0357
B12	inactive: 4.46
B13	inactive: 0.441

Same assay, conditions: antigen blocked with: nothing

Binder	mRNA display binding score
B1	inactive: 0.875
B2	inactive: 0.465
B3	inactive: 0.465
B4	inactive: 0.875
B5	inactive: 1.75
B6	inactive: 1.69
B7	inactive: 2.83
B9	inactive: -0.672
B10	inactive: -0.266
B11	inactive: 0.915
B12	inactive: 2.17
B13	inactive: -0.173

These binders were tested against Influenza B/Lee/1940 hemagglutinin ectodomain in the same assay as above. Conditions: antigen blocked with: 2 µM CR9114 IgG.
Procedure: as §1

Binder	mRNA display binding score
B1	inactive: -0.532
B2	inactive: 1.48
B3	inactive: -0.286
B4	inactive: -0.842
B5	inactive: 0.766
B6	inactive: 1.48
B7	inactive: 1.16
B8	inactive: 0.304
B9	active: 21.1
B10	inactive: 1
B11	inactive: 1.74
B12	active: 21.4
B13	inactive: -0.416

Same assay, conditions: antigen blocked with: nothing

Binder	mRNA display binding score
B1	inactive: 4.73
B2	inactive: 2.11
B3	inactive: 3.63
B4	inactive: 3.21
B5	inactive: 0.338
B6	active: 6.92
B7	active: 6.92
B9	active: 71.1
B10	active: 9.42
B11	inactive: 0.105
B12	active: 51.7
B13	inactive: -0.0415

Each binder was assayed against Influenza B/Phuket/3073/2013 hemagglutinin ectodomain in the same assay as above. Conditions: antigen blocked with: 2 µM CR9114 IgG.
Procedure: as §1

Binder	mRNA display binding score
B1	inactive: 1.09
B2	inactive: 5.88
B3	inactive: 1.24
B4	inactive: 0.677
B5	active: 40.6
B6	active: 15.1
B7	inactive: 2.86
B8	inactive: 2
B9	inactive: 0.288
B10	inactive: -0.0234
B11	inactive: 0.228
B12	active: 65.9
B13	inactive: 1.03

Same assay, conditions: antigen blocked with: nothing

Binder	mRNA display binding score
B1	inactive: 3.96
B2	inactive: 1.72
B3	inactive: 3.01
B4	inactive: 2.67
B5	active: 41.7
B6	active: 30
B7	active: 5.86
B9	inactive: -0.367
B10	active: 5.2
B11	inactive: -0.164
B12	active: 23.7
B13	inactive: 0.62
